Assay results as given in the supplement of paper PMC3334620.
Whole data set: some 33,000 sequences, median “E-score (-0.5 to 0.5)” near -0.043, cut for the highest 2% near 0.37. The list shows a part of the results.

Target: T1, Upc2 (UniProt Q12151)
T1 sequence: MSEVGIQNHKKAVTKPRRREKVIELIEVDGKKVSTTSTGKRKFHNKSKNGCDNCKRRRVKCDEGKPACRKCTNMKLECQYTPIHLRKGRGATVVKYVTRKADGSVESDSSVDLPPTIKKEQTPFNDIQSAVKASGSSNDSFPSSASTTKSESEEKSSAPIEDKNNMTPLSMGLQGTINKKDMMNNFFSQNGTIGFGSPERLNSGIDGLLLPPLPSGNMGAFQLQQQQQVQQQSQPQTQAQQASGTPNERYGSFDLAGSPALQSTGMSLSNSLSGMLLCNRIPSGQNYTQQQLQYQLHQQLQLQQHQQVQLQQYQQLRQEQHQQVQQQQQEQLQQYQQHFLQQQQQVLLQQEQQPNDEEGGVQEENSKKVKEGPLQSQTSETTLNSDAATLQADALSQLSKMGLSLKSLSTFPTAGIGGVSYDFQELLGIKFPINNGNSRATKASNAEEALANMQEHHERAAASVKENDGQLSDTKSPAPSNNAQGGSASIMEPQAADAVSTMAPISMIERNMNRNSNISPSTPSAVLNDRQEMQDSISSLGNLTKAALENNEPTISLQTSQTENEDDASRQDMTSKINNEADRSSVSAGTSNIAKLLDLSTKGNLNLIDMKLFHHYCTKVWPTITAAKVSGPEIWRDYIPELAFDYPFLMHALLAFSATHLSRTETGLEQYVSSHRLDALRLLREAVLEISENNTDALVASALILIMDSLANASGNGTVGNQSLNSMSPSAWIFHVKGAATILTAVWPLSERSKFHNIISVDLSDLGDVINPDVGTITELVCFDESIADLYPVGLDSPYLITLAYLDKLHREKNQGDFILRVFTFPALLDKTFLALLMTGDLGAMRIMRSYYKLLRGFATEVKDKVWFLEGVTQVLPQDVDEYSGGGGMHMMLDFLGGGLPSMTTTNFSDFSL
Assay: PBM E-score (8-mer binding enrichment) (E-score (-0.5 to 0.5)); higher = stronger / more preferred TF binding; most listed sequences are background and not binding sites
Conditions: protein concentration: 200 nM; construct: GST-full length
How it was run: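 Masliner-normalised scans of fluorescent anti-GST signal were the basis for scoring. That signal came from GST-tagged yeast transcription factors applied at about 100-200 nM to double-stranded universal all-10-mer Agilent arrays on fresh or once-stripped slides. Each ungapped eight-base word, pooled with its reverse complement, received an E-score from the Universal PBM Analysis Suite.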

Sequence | PBM E-score
CTTAGACA | -0.0523
ATAACTAT | 0.109
GGCATGAC | -0.0533
TACTAATA | 0.0789
GCGCGCAC | -0.0883
CGGTGACG | -0.032
CTCATCTC | -0.0248
AACGCGAA | 0.23
GTCGAGTA | 0.0357
GTTAGACA | -0.122
ACGCCGCC | -0.0501
AGTGAGTA | 0.0846
CACTTTTA | 0.027
AATGCGTG | -0.165
AATCCGGA | -0.204
CGCCTCAA | -0.0172
CGTGTGTA | -0.00606
CACTGAGG | -0.105
CCAGAATC | -0.0372
GCTCTAAC | -0.101
ATTCTGAC | -0.0715
ATGTGAAG | 0.0151
TGTAGTAA | 0.0713
AATTGAAA | 0.0218
CATCATTC | -0.0039

Sequence | PBM E-score
GATAATCA | -0.215
ATGAGTGA | -0.101
TCAACCCA | 0.00722
AGGTAAGC | 0.013
CAGAAGTA | -0.191
CTCGGCTC | -0.0812
CATGGGGC | -0.34
GCAGCCAA | -0.15
ACTGTTAT | -0.0931
AAGTAACT | -0.161
ATCTGCAT | -0.0901
CCAGCCGG | -0.142
TCAGTGGA | -0.294
ACAAACGA | 0.466
AGTGATAG | -0.067
TGCACGAA | 0.145
TCAAAAAA | -0.122
ATCGCGAA | 0.205
AAGGCGAT | 0.0551
CTGGGCGA | -0.158
CGAGTTGC | 0.129
ATCGACCG | 0.00067
GCCTCACA | 0.0293
CGAAATCA | 0.273
CGAGAAGA | 0.0586

Sequence | PBM E-score
AACACTTA | 0.0395
CATGGATA | -0.0903
GCGAAAAC | 0.11
CGTTAACA | 0.274
CGGGAGTC | -0.218
ATAACAGG | -0.136
AATAACGT | 0.133
GAGCCATA | 0.0879
AAACCATA | 0.104
AAGAGCAC | -0.0208
CCACGCGA | -0.0516
AAGATGAG | -0.136
GAGCTAGC | -0.00939
CTCGCTAC | 0.235
GATAGTGA | 0.139
CCAAGGGG | -0.0169
ACAGTCAG | 0.0967
ACAATTAA | 0.109
CACCAACC | -0.0946
CACACTGG | -0.2
AGAAGCGA | 0.158
CAATCAGA | -0.0191
CGTGTCGC | 0.217
ACGCACTG | 0.0653
AAAAGACA | 0.0436

Sequence | PBM E-score
AATCATCA | -0.0622
CATGGAAA | -0.0449
ACAGCAGG | -0.186
GAGTGGGA | 0.0635
CCACGCGG | -0.171
CCCATTAA | -0.105
GCTATTTA | -0.0825
GAAGCATA | 0.00504
ATGACGGA | -0.102
CTGTTTAC | 0.142
ACTCTGCC | 0.0158
ACCGAGAA | 0.211
CTCCTAAC | 0.0295
GTTATCCA | -0.154
CCATAGAC | -0.166
AATTCATA | -0.129
CCAGTTAA | 0.173
CCAAACAG | -0.17
GAGTAGAC | -0.0169
CAAAGCTC | -0.0741
GAGCGCTA | -0.0659
GCCAGGAA | -0.103
AGTGACAT | -0.207
GACCGTCC | -0.156
AACACGTA | 0.281

Sequence | PBM E-score
AACGTAGG | -0.116
CAAGTAAG | -0.254
CAGCGAGG | -0.224
AAACGATT | 0.449
GCATCTGA | -0.208
CCATTTGC | -0.00531
ACGAACCA | 0.376
AGATTCCT | -0.332
GCCTATAC | 0.276
CAAGGTGA | -0.206
ATAACCGA | 0.271
GCAGTGCC | -0.274
ATATGTCA | -0.0697
GGTCACGA | -0.086
CGGCAGAA | -0.0939
TGGAACCA | -0.0613
CGCAGCCA | -0.0707
TCACAAGA | -0.2
ATGCGTAC | 0.282
GTTTGCGA | 0.277
CGCCGAAC | 0.192
CTGATGAA | -0.0906
AACCTGTC | 0.0752
ATTCGACC | -0.00888
CGCGTTCC | 0.223

Sequence | PBM E-score
TGTAATAA | -0.0543
GAGTGAGA | -0.214
ATAGCCAT | -0.0513
AGTTGGGA | -0.13
CTACCAGA | -0.122
ACGACACA | 0.321
ATAGCTCG | 0.159
GCGCCAGA | -0.0862
TCCATTAA | -0.128
AAAGTGCG | -0.00498
GTATCCAC | 0.11
TTAGCAAA | -0.0412
GACATAGA | -0.131
CTCAAAAG | -0.0616
CGTATGCC | 0.372
TACCGCCA | -0.0909
TGTACAAA | 0.0122
AGCTCTGC | -0.424
AGCTTGCG | -0.0873
AATGTAGA | -0.16
AGAGTTAG | -0.199
CTGTATAA | 0.156
ATTCATAG | -0.186
GCTTGTAC | 0.237
CAATTGGC | 0.0559

Sequence | PBM E-score
ACCGAACA | 0.0985
CCGGAGCA | -0.0221
TGACGCCA | -0.0243
GAGCCGAC | -0.121
CGCCTATA | 0.234
GCCTTAGA | -0.138
CCTACACC | -0.131
CATATGGA | 0.0409
AAATTAAT | 0.0208
GACGGAGA | -0.106
ACTAACCC | -0.252
AGTCATCG | 0.124
TCGTGTAA | 0.311
ATTGCCCA | -0.0428
CTGAGAAG | -0.153
CTGCCTTC | -0.192
GCTCACCC | -0.115
CGGGTCAG | -0.0198
CGCGAAAG | 0.113
CTTACTAA | 0.0609
GATGAGAC | -0.115
CCTATTGA | -0.0766
AGACCTAT | 0.118
AAGCCCAT | -0.112
AAGGCCAA | -0.0421

Sequence | PBM E-score
AACATCAT | -0.094
GACTCTTA | -0.131
CCCTGAAC | 0.253
CTCTGAGA | -0.221
AGGCGTCC | -0.22
GGCGGAAC | -0.105
CATCCAGC | 0.0575
CCATGGCC | -0.288
AACAAAAG | 0.0842
GAGCTAGA | -0.109
CGTGTATA | 0.284
ATAGCGCA | 0.0791
AAGCGAAG | 0.309
ATGTCTTG | -0.0852
AGTGAATG | -0.0487
ACAATCAT | -0.208
GCGCAAGA | -0.0728
TACGATCA | 0.422
CCCGAACC | 0.129
CAAACCAG | -0.0251
CCTAAGCC | -0.291
CACACGCA | -0.0579
CACACCGG | -0.22
CCGGTGCG | 0.0885
CAGTGGTC | 0.0415

Sequence | PBM E-score
GGTCCTGA | -0.0501
GGTAACAC | -0.0963
CCTGGTAG | -0.28
CCTTATAC | 0.353
CAGTCACG | -0.282
ACCGTCCG | -0.0883
AATTTTCA | -0.00279
GACACTCA | -0.183
CCACTCTA | -0.247
AAATATTT | 0.131
CTGCTGGC | -0.198
TAATGCGA | 0.245
CTTTCACC | 0.0779
ATATACCG | 0.194
CGCAGCTA | -0.151
AGTACACC | 0.0771
ACTCCACT | -0.196
CTGCCAGA | -0.175
ACAGCTTG | -0.0169
